Data from the antibiotic and cytotoxicity screens of Wong et al. (2023).
Some of the results follow.

test system: HepG2; test: cytotoxicity call (relative viability < 0.9); conditions: 10 µM

Structure (SMILES)	cytotoxicity call
O=C(C[C@@H]1CC=CCC[C@@H](Cc2ccc(F)cc2)C(=O)OC[C@@H](Cc2c[nH]c3ccccc23)NC1=O)N[C@@H](CO)Cc1ccccc1	inactive
COc1ccc(S(=O)(=O)N(C)C[C@H]2Oc3ccc(NC(=O)Nc4c(C)noc4C)cc3C(=O)N([C@H](C)CO)C[C@@H]2C)cc1	inactive
C#CCN1[C@H](/C=C/C2CC2)[C@H](Cc2ccccc2)OC(=O)[C@@H]1Cc1ccc(-n2cc(COc3ccccc3/C=C(C)/C=C/C(=O)NO)nn2)cc1	active
C[C@H](CO)N1C[C@H](C)[C@H](CN(C)S(C)(=O)=O)Oc2ncc(C#CC3(O)CCCC3)cc2C1=O	inactive
COc1cccc(NC(=O)N[C@@H]2C=C[C@H](CC(=O)N3CCN(C)CC3)O[C@@H]2CO)c1	inactive
CCCNC(=O)N1C[C@H](C)[C@H](OC)CN(C)C(=O)c2ccc(NS(=O)(=O)CC(F)(F)F)cc2OC[C@H]1C	inactive
C[C@H](CO)N1C[C@H](C)[C@H](CN(C)C(=O)Nc2ccc(C(F)(F)F)cc2)OCCCC[C@H](C)Oc2ccc(NC(=O)c3ccccc3)cc2C1=O	inactive
C[C@H](CO)N1C[C@H](C)[C@H](CN(C)C(=O)CN(C)C)Oc2cc(C#C[C@@H](C)O)ccc2S1(=O)=O	inactive
C[C@@H]1CN([C@H](C)CO)C(=O)c2cccc(NC(=O)c3cnccn3)c2O[C@@H]1CN(C)S(=O)(=O)c1cn(C)cn1	inactive
COc1cccc(-c2cn(CC[C@H]3CC[C@H](NC(=O)CN(C)C)[C@H](CO)O3)nn2)c1	inactive
Cc1cc(C=Cc2ccc3cc(N(C)C)ccc3[n+]2C)c(C)n1-c1ccccc1.O=C([O-])c1cc2ccccc2c(Cc2c(O)c(C(=O)O)cc3ccccc23)c1O	active
C[C@@H]1CCCCO[C@@H](CN(C)C(=O)Nc2ccc3c(c2)OCO3)[C@@H](C)CN([C@H](C)CO)C(=O)c2cc(NC(=O)CCC(F)(F)F)ccc2O1	inactive
C[C@@H]1CN([C@@H](C)CO)C(=O)c2cc(NC(=O)Cc3cn(C)c4ccccc34)ccc2O[C@H]1CN(C)C(=O)Nc1ccc(C(F)(F)F)cc1	inactive
NCc1cccc(-c2ccccc2)c1	inactive
C[C@@H]1CN([C@H](C)CO)C(=O)c2cccc(NC(=O)C3CCOCC3)c2O[C@H]1CN(C)S(=O)(=O)c1ccc(F)cc1	inactive
C[C@@H]1CCCCO[C@H](CN(C)S(=O)(=O)c2ccc(Cl)cc2)[C@H](C)CN([C@H](C)CO)C(=O)c2cc(NC(=O)CCC(F)(F)F)ccc2O1	active
Cc1noc(C)c1NC(=O)Nc1ccc2c(c1)C(=O)N([C@@H](C)CO)C[C@H](C)[C@H](CN(C)C(=O)NC1CCCCC1)OCCCC[C@@H](C)O2	inactive
C[C@@H]1CC[C@]2(C(=O)O[C@@H]3O[C@H](CO)[C@@H](O)[C@H](O)[C@H]3O)CC[C@]3(C)C(=CC[C@H]4[C@@]5(C)C[C@@H](O)[C@H](O)[C@@](C)(CO)[C@@H]5CC[C@]43C)[C@@H]2[C@]1(C)O	inactive
C[C@@H]1CCCCO[C@@H](CN(C)C(=O)Nc2ccccc2)[C@H](C)CN([C@@H](C)CO)C(=O)c2cc(NC(=O)Nc3ccc(C(F)(F)F)cc3)ccc2O1	inactive
Cc1cc(NC(=O)[C@@H]2CCCN2)no1	inactive
CN(C)S(=O)(=O)n1nnc2ccccc21	inactive
Cc1noc(C)c1S(=O)(=O)N(C)C[C@H]1Oc2ccc(NC(=O)Cc3cn(C)c4ccccc34)cc2CC(=O)N([C@@H](C)CO)C[C@@H]1C	inactive
Cc1ccccc1-c1ccc2c(c1)O[C@@H](CN(C)C(=O)Nc1ccc(C(F)(F)F)cc1)[C@@H](C)CN([C@H](C)CO)S2(=O)=O	inactive
C[C@H](CO)N1C[C@H](C)[C@H](CN(C)CC2CC2)Oc2ccc(NS(=O)(=O)c3cn(C)cn3)cc2C1=O	inactive
C[C@@H]1CCCCO[C@H](CN(C)Cc2ccc3c(c2)OCO3)[C@@H](C)CN([C@H](C)CO)C(=O)c2cc(NS(=O)(=O)c3ccccc3)ccc2O1	inactive
C[C@@H]1CCCCO[C@@H](CN(C)C(=O)Nc2ccc(C(F)(F)F)cc2)[C@H](C)CN([C@@H](C)CO)C(=O)c2cc(NS(=O)(=O)c3cn(C)cn3)ccc2O1	inactive
COc1ccc(C2COc3c(ccc(O)c3OC)C2)c(OC)c1O (configuration not stated)	inactive
